The source of these data is publication PMC4336329 (PLoS ONE, 2015).

The whole screen tested about 310,000 compounds, of which about 14,000 (4.5%) showed an effect of 50% or more. Effects have a minus sign here. The list shows a part of the results.
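Further: peak tail current of the secondary pulse compared with the same well before compound.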

The target of this assay is human ether-à-go-go-related gene (hERG) potassium channel (human, UniProt Q12809). Briefly: primary screen, population patch clamp on CHO cells stably expressing hERG.
human ether-à-go-go-related gene (hERG) potassium channel, sequence (Q12809 whole entry, looked up): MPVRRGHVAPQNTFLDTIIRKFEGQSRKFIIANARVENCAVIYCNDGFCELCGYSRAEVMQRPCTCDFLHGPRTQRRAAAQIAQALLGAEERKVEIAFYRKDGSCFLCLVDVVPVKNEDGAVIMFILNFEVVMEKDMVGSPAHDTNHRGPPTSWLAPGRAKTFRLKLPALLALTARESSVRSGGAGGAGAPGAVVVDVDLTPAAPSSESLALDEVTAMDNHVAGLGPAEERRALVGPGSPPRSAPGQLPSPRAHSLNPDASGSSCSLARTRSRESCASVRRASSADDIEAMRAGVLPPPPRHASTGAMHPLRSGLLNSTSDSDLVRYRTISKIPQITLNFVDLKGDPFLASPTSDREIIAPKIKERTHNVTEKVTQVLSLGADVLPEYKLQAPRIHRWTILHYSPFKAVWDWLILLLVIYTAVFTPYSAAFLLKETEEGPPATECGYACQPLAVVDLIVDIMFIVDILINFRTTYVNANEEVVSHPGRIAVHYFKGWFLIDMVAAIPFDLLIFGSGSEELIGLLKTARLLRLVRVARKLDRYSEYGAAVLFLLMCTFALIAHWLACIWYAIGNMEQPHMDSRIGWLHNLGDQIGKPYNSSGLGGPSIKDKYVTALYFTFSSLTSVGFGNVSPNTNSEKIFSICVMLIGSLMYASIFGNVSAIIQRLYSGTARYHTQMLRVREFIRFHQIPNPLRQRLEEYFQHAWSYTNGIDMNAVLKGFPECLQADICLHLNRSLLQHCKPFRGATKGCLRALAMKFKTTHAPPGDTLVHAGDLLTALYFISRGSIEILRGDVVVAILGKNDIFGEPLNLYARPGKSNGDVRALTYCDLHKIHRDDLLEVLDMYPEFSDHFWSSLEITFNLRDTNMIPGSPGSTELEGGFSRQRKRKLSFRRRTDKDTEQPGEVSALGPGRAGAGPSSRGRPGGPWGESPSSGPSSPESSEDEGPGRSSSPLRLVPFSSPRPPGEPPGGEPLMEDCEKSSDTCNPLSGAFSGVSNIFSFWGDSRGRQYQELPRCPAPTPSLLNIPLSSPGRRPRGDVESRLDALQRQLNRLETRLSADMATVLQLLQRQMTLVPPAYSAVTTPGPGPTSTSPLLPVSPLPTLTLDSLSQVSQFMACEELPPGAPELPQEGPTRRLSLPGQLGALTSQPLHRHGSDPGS
Consider `CCOC(=O)N1CCN(C(=O)C2CCN(S(=O)(=O)c3ccc(Br)s3)CC2)CC1`, for which the “hERG current change (%, negative = inhibition) at 10uM” value is on record as -35.2%.
As for `Cc1cccn2c(=O)c3cc(C(=O)NCCCN4CCCC4=O)n(C)c3nc12`, the “hERG current change (%, negative = inhibition) at 10uM” value was -11.2%.
In the case of `Cc1ccc(N2CC(NS(=O)(=O)c3cccnc3)CC2=O)cc1C` (stereo not shown) it was 19.7%.
For the compound `O=C1OC(Nc2ncccn2)c2ccccc21` (stereo not shown), the “hERG current change (%, negative = inhibition) at 10uM” value was 19.6%.
In the case of `COc1ccc(NC(=S)Nc2cc(C)cc(C)n2)cc1OC` it was 9.39%; in that of `CS(=O)(=O)N1CCN(c2c(Cl)cccc2[N+](=O)[O-])CC1`, -3.53%.
In the case of `Nc1ccc2oc(-c3ccccc3Cl)nc2c1` it was -16.4%.
In the case of `Cc1nnc(NC(=O)CSc2ccc3nnc(-c4cccnc4)n3n2)s1` it was 6.27%.
Turning to `CC(C)c1ccc(NC(=O)C2C3C=CC(CC3)C2C(=O)O)cc1` (stereo not shown), the “hERG current change (%, negative = inhibition) at 10uM” value was -11.3%.
In the case of `CN(CC(=O)Nc1ccc(F)cc1)C(=O)C1CC(=O)N(Cc2ccccc2)C1` (stereo not shown) it was -4.88%.
In the case of `CSc1ccc(S(=O)(=O)N2CCC(C(=O)NCCc3ccccc3)CC2)cc1` it was 20.9%; in that of `CN1CCSc2ccc(C(=O)Nc3cc(F)ccc3F)cc21`, 8.15%; in that of `O=c1[nH]cc(N=Cc2cc([N+](=O)[O-])ccc2O)c(=O)[nH]1`, 12%.
As for `COc1ccc(NC2CCCN(C(=O)c3ccncc3)C2)cc1` (stereo not shown), the “hERG current change (%, negative = inhibition) at 10uM” value is 12.6%.
In the case of `CC(C)(C)SCCNC(=O)c1ccccc1` it was -5.17%.
In the case of `CCc1c(C)nc(N)n2c(SCC(=O)NC3CCCCC3)nnc12` it was 2.41%.
In the case of `CCc1ccc(NC(=O)C(C)OC(=O)CCC(=O)c2cccs2)cc1` (stereo not shown) it was -40%; in that of `CC(=O)c1cccc(NC(=O)c2c(F)c(F)c(F)c(F)c2F)c1`, 3.41%.
Turning to `COC(=O)c1ccccc1NC(=O)Cn1cc2c(n1)CCC(C)C2` (stereo not shown), the “hERG current change (%, negative = inhibition) at 10uM” value is -5.88%.
In the case of `Nc1nc(SCC(=O)N2CCOCC2)[nH]c(=O)c1-c1ccccc1` it was 24.6%.
With `CCn1cc(CN2CCc3c([nH]c4ccccc34)C2c2cccc(O)c2)c(C)n1` (stereo not shown), the “hERG current change (%, negative = inhibition) at 10uM” value is -18.8%.
As for `O/N=C1/C2C3C(Br)C4C5CC(C1C53)C24` (stereo not shown), the “hERG current change (%, negative = inhibition) at 10uM” value is given as -16.4%.
In the case of `COCCn1nnnc1SCC(=O)c1ccccc1` it was 14.1%; in that of `Cc1ccc(N=C(N)N=C(N)N)c(C)c1`, 12.5%.
For `Cc1ccc(C(=O)O)cc1N1C(=O)c2cccc3cc(Br)cc(c23)C1=O`, the “hERG current change (%, negative = inhibition) at 10uM” value is on record as 15.7%.
In the case of `CN(Cc1cccs1)C(=O)CCNS(=O)(=O)c1ccc(Br)cc1` it was -42.4%; in that of `COc1ccc(NC(=O)CCCn2cnc3ccccc3c2=O)cc1`, 1.16%.
For `COC(=O)/C(=C1/Oc2ccc(C)cc2S1)C(F)(F)F`, the “hERG current change (%, negative = inhibition) at 10uM” value turned out to be 32.8%.
In the case of `COc1ccc(C(=O)N/C(=C/c2ccco2)C(=O)NC2CCS(=O)(=O)C2)cc1` (stereo not shown) it was 20.6%; in that of `COc1ccc(/C=N/NC(=O)c2ccc(COc3cccc4cccnc34)cc2)cc1O`, -13.5%; in that of `Cc1cccc2sc(N(CCCN(C)C)C(=O)c3nc4ccccc4s3)nc12.Cl`, 4.2%.
In the case of `O=C(Cn1cc(C(=O)c2ccco2)c2ccccc21)Nc1ccccc1F` it was -2.42%.
In the case of `CC(=O)Nc1ccc(S(=O)(=O)N2CCC(N3CCCCCC3)CC2)cc1.O=C(O)C(=O)O` it was -3.95%; in that of `O=C(NCCO)c1cccc2c1-c1ccccc1C2=O`, 3.51%.
Take `CCc1nc2nc(C)c(NS(=O)(=O)c3ccc4c(c3)CCCC4)c(=O)n2[nH]1`: the “hERG current change (%, negative = inhibition) at 10uM” value came out at 16.1%.
For the compound `COc1cc(C2N3CC4(C)CN2CC(C)(C3)C4)ccc1O` (stereo not shown), the “hERG current change (%, negative = inhibition) at 10uM” value is on record as -7.43%.
In the case of `CC(=O)Nc1ccc(S(=O)(=O)Nc2nc3ccc(C)cc3s2)cc1` it was 0.462%.
For the compound `CCCCNCC(O)(c1ccc(Cl)cc1)c1ccc(Cl)cc1`, the “hERG current change (%, negative = inhibition) at 10uM” value is -68%.
In the case of `Cc1nnc(N(C)C(=O)c2ccc3c(c2)OCO3)s1` it was 21.9%; in that of `O=C(Cc1cccs1)Nc1nc(-c2ccc(F)c(F)c2)cs1`, 19%.
Consider `COCCNC(=O)c1ccc(-n2c(SCc3cccnc3)nc3ccccc3c2=O)cc1`, for which the “hERG current change (%, negative = inhibition) at 10uM” value is -8.88%.
Take `O=C(C[n+]1cccc(NC(=O)c2ccccc2)c1)c1ccc(NC(=O)c2ccccc2)cc1.[Br-]`: the “hERG current change (%, negative = inhibition) at 10uM” value was found to be 1.37%.
In the case of `CCOc1ccc(OCCC(=O)N2CCN(S(=O)(=O)c3ccc(F)cc3)CC2)cc1` it was -6.61%; in that of `O=C(Nc1cccc(F)c1)NC1(C(=O)N2CCN3CCCC3C2)CCCCC1` (stereo not shown), 3.39%; in that of `Cc1ccc(S(=O)(=O)N(C)C)cc1NC(=O)CSc1ccc2c(c1)OCCO2`, -24.1%.
With `Cc1ccc2nc(-c3ccccn3)cc(C(=O)NCCc3ccc(F)cc3)c2c1`, the “hERG current change (%, negative = inhibition) at 10uM” value was determined as 35%.
In the case of `Cc1nc2c(C)cccn2c(=O)c1NC(=O)c1ccc2c(c1)OCO2` it was 6.97%.
In the case of `CCCCCC(=O)NC(=S)NNC(=O)c1ccc([N+](=O)[O-])cc1` it was 24.5%; in that of `CC(=O)Nc1ccc(S(=O)(=O)N2CCN(C(=O)CCC3CCCC3)CC2)cc1`, -21.2%; in that of `CC(=O)c1cccc(NC(=O)NC2CC3CCCC(C2)N3CC(C)C)c1` (stereo not shown), -9.61%.
For the compound `COc1ccc(/C=C2\CN(Cc3ccccc3)C/C(=C\c3ccc(OC)cc3OC)C2=O)c(OC)c1`, the “hERG current change (%, negative = inhibition) at 10uM” value turned out to be 17.6%.
In the case of `Nc1cc(N)nc(SCc2cc([N+](=O)[O-])cc3c2OCOC3)n1` it was -12.9%; in that of `CCCC(NC(=O)c1c(C)noc1C)C12CC3CC(CC(C3)C1)C2` (stereo not shown), 12.9%.
In the case of `CCOC(=O)c1c(C)oc2cc(Br)c(OC(C)C(=O)OCC)cc12` (stereo not shown) it was -0.807%.
In the case of `COc1cc(C(=O)Nc2ccc(C)cn2)c([N+](=O)[O-])cc1OC` it was 4.44%; in that of `C=C(C)CN=C1NN=C(c2cc(C)n(-c3ccc(C)cc3)c2C)CS1`, 4.06%.
For `O=C(Nc1nnc(SCc2ccc(Cl)cc2)s1)C1CCCO1` (stereo not shown), the “hERG current change (%, negative = inhibition) at 10uM” value is -21.9%.
As to `C(=N\n1cnnc1)/c1ccc(OCc2cccc3ccccc23)cc1`, the “hERG current change (%, negative = inhibition) at 10uM” value is -33.4%.
As for `Cc1ccc(N(CC#N)C(=O)CS(=O)(=O)c2cccc([N+](=O)[O-])c2)cc1`, the “hERG current change (%, negative = inhibition) at 10uM” value is -17.4%.
In the case of `CN(C(=O)CSc1nnc(-c2ccncc2)n1Cc1ccccc1)C1CCS(=O)(=O)C1` (stereo not shown) it was 5.46%.
For `C/C(=C/C(=O)Nc1cccc(F)c1)N1CCCC1`, the “hERG current change (%, negative = inhibition) at 10uM” value was 18.2%.
In the case of `O=C(N/N=C/c1ccccc1O)c1ccncc1` it was 2.66%.
On to `O=C(CCc1nc2sc3c(c2c(=O)[nH]1)CCCC3)N1CCN(c2ccccc2)CC1`, for which the “hERG current change (%, negative = inhibition) at 10uM” value amounted to 2.7%.
In the case of `COc1ccc(OC)c(-n2nnnc2SCC(=O)NCCc2ccccc2)c1` it was -20.3%.
In the case of `N#CC1=C(N)c2ccccc2CC12CCCCC2` it was 7.03%.
In the case of `COc1ccc(C(=O)n2nc(-c3ccccc3)nc2N)cc1OC` it was 16.6%.
Take `COC(=O)C1=C(C)N(C)C(=O)NC1c1ccsc1` (stereo not shown): the “hERG current change (%, negative = inhibition) at 10uM” value turned out to be 11.6%.
`CCN(CC(=O)Nc1ccc(OC)cc1)C(=O)c1ccc(Cl)c(S(=O)(=O)N2CCCC2)c1`: the “hERG current change (%, negative = inhibition) at 10uM” value is given as -18.1%.
In the case of `COc1ccc(/C=C(\C#N)C(=O)OCC(=O)N2CC(C)OC(C)C2)cc1` (stereo not shown) it was 14.6%; in that of `COc1ccc(NC(=O)CN2CCN(S(=O)(=O)N3CCCCCC3)CC2)cc1`, -71.7%.
In the case of `CS(=O)(=O)c1ccc(C(=O)N(CCc2ccccc2)Cc2ccccc2)cc1` it was 5.56%.
In the case of `CNS(=O)(=O)c1cccc2cccnc12` it was 11.1%; in that of `CC(=O)N1CCc2cc(S(=O)(=O)CCC(=O)NCc3ccc(C)o3)ccc21`, 15%; in that of `C=CCN(C(=O)c1csnn1)C(C(=O)NCc1ccccc1)c1c(F)cccc1Cl` (stereo not shown), -16.9%.
As for `Cc1ccc(OCCSc2nc3ccccc3n2CC(=O)O)c(C(C)C)c1`, the “hERG current change (%, negative = inhibition) at 10uM” value is recorded as 2.95%.
In the case of `O=C(c1ccc(N2C(=O)C3C4c5ccccc5C(c5ccccc54)C3C2=O)cc1)N1CCOCC1` (stereo not shown) it was 2.25%; in that of `Cc1ccc(-n2[nH]c(C)c(/C=N/c3ccccn3)c2=O)cc1`, 2.58%.
In the case of `COc1ccc(/C=N/NC(=O)c2ccc(O)cc2O)cc1CSc1ccccn1` it was 0.136%.
In the case of `CCc1ccccc1NC1=NCC(=O)N1C1CCCCC1` it was -1.39%.
In the case of `Cn1c(CSCC(=O)Nc2ccccc2)nnc1SCc1ccccc1`, the “hERG current change (%, negative = inhibition) at 10uM” value is given as -6.94%.
As to `Cc1[nH]c(C)c(S(=O)(=O)NCc2ccco2)c1C(=O)N1CCCCC1`, the “hERG current change (%, negative = inhibition) at 10uM” value amounted to 7.16%.
In the case of `O=C(N/C(=C/c1cccnc1)C(=O)N1CCOCC1)c1ccccc1F` it was -1.08%.
In the case of `Cc1cc(C)c(S(=O)(=O)N2CCN(c3ccccc3)CC2)c(C)c1` it was 16.5%.
In the case of `S=c1[nH]nc(-c2ccccc2Cl)n1Cc1ccccc1` it was 7.24%; in that of `COc1ccccc1CNC(=O)C(=O)NCC1OCCN1S(=O)(=O)c1ccccc1` (stereo not shown), 0.173%.
Regarding `COc1ccc(-n2nc(C(=O)NCC(=O)NC3CCCC(C)C3C)c3ccccc3c2=O)c(OC)c1` (stereo not shown), the “hERG current change (%, negative = inhibition) at 10uM” value amounted to 12.8%.
In the case of `CN1C2C=C(N(CCc3ccccc3)C(=O)c3ccc(Cl)cc3)CC1CC2.Cl` (stereo not shown) it was -74.8%; in that of `O=C(c1ccco1)N1CCN(S(=O)(=O)c2cccs2)CC1`, -22.8%.
